Results reported in the supplement of paper PMC8728848.
The other results are listed elsewhere or left out.

Tests used:
Test in all cases: glycan array binding signal (z-score within array); higher = stronger binding
Details in all cases: glycan notation: IUPAC condensed, linker removed
[1] = molecular target: Gal(b1-4)GlcNAc(b1-3)Gal(b1-4)GlcNAc(b1-3)[Gal(b1-4)GlcNAc(b1-3)Gal(b1-4)GlcNAc(b1-6)]GalNAc
Procedure, shortened: (§1)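 From the Consortium for Functional Glycomics database, 3228 arrays were curated, keeping only those whose protein sequence was available. Binding is given as a within-array Z-score averaged across arrays sharing a protein sequence and across linkers. Negative Z-scores can be read as non-binding.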

[2] = molecular target: Gal(b1-4)GlcNAc(b1-3)Gal(b1-4)GlcNAc(b1-6)[Gal(b1-3)]GalNAc
Procedure, shortened: as §1

[3] = molecular target: Gal(b1-4)GlcNAc(b1-3)Gal(b1-4)[Fuc(a1-3)]GlcNAc(b1-3)Gal(b1-4)[Fuc(a1-3)]GlcNAc
Procedure, shortened: as §1

[4] = molecular target: Gal(b1-4)GlcNAc(b1-3)GalNAc
Procedure, shortened: as §1

[5] = molecular target: Gal(b1-4)GlcNAc(b1-3)[Fuc(a1-3)GlcNAc(b1-6)]Gal(b1-4)Glc
Procedure, shortened: as §1

[6] = molecular target: Gal(b1-4)GlcNAc(b1-3)[Gal(b1-4)GlcNAc(b1-6)]Gal(b1-4)GlcNAc
Procedure, shortened: as §1

[7] = molecular target: Gal(b1-4)GlcNAc(b1-3)[GlcNAc(b1-6)]Gal(b1-4)GlcNAc
Procedure, shortened: as §1

[8] = molecular target: Gal(b1-4)GlcNAc(b1-6)Gal(b1-4)GlcNAc
Procedure, shortened: as §1

[9] = molecular target: Gal(b1-4)GlcNAc(b1-6)GalNAc
Procedure, shortened: as §1

[10] = molecular target: Gal(b1-4)GlcNAc(b1-6)[Gal(b1-3)]GalNAc
Procedure, shortened: as §1

[11] = molecular target: Gal(b1-4)GlcNAc(b1-6)[Gal(b1-4)GlcNAc(b1-3)]GalNAc
Procedure, shortened: as §1

Gal(b1-4)GlcNAc6P = molecular target: Gal(b1-4)GlcNAc6P
Procedure, shortened: as §1

Gal(b1-6)Gal = molecular target: Gal(b1-6)Gal
Procedure, shortened: as §1

Gal3S(b1-3)GalNAc = molecular target: Gal3S(b1-3)GalNAc
Procedure, shortened: as §1

Gal3S(b1-3)GlcNAc = molecular target: Gal3S(b1-3)GlcNAc
Procedure, shortened: as §1

[12] = molecular target: Gal3S(b1-3)[Fuc(a1-4)]GlcNAc
Procedure, shortened: as §1

Gal3S(b1-4)Glc = molecular target: Gal3S(b1-4)Glc
Procedure, shortened: as §1

Gal3S(b1-4)Glc6S = molecular target: Gal3S(b1-4)Glc6S
Procedure, shortened: as §1

Gal3S(b1-4)GlcNAc = molecular target: Gal3S(b1-4)GlcNAc
Procedure, shortened: as §1

[13] = molecular target: Gal3S(b1-4)[Fuc(a1-3)]Glc6S
Procedure, shortened: as §1

[14] = molecular target: Gal3S(b1-4)[Fuc(a1-3)]GlcNAc
Procedure, shortened: as §1

[15] = molecular target: Gal3S(b1-4)[Fuc(a1-3)]GlcNAc6S
Procedure, shortened: as §1

Gal3S4S(b1-4)GlcNAc = molecular target: Gal3S4S(b1-4)GlcNAc
Procedure, shortened: as §1

Gal3S6S(b1-4)GlcNAc = molecular target: Gal3S6S(b1-4)GlcNAc
Procedure, shortened: as §1

Gal3S6S(b1-4)GlcNAc6S = molecular target: Gal3S6S(b1-4)GlcNAc6S
Procedure, shortened: as §1

Gal4S(b1-4)GlcNAc = molecular target: Gal4S(b1-4)GlcNAc
Procedure, shortened: as §1

Gal4S6S(b1-4)GlcNAc = molecular target: Gal4S6S(b1-4)GlcNAc
Procedure, shortened: as §1

Gal6P(b1-4)GlcNAc = molecular target: Gal6P(b1-4)GlcNAc
Procedure, shortened: as §1

Gal6S(b1-3)GlcNAc = molecular target: Gal6S(b1-3)GlcNAc
Procedure, shortened: as §1

Gal6S(b1-3)GlcNAc6S = molecular target: Gal6S(b1-3)GlcNAc6S
Procedure, shortened: as §1

Gal6S(b1-4)Glc = molecular target: Gal6S(b1-4)Glc
Procedure, shortened: as §1

Gal6S(b1-4)Glc6S = molecular target: Gal6S(b1-4)Glc6S
Procedure, shortened: as §1

Gal6S(b1-4)GlcNAc = molecular target: Gal6S(b1-4)GlcNAc
Procedure, shortened: as §1

Gal6S(b1-4)GlcNAc6S = molecular target: Gal6S(b1-4)GlcNAc6S
Procedure, shortened: as §1

GalNAc(a1-3)Gal = molecular target: GalNAc(a1-3)Gal
Procedure, shortened: as §1

GalNAc(a1-3)GalNAc = molecular target: GalNAc(a1-3)GalNAc
Procedure, shortened: as §1

[16] = molecular target: GalNAc(a1-3)GalNAc(b1-3)Gal(a1-4)Gal(b1-4)Glc
Procedure, shortened: as §1

[17] = molecular target: GalNAc(a1-3)GalNAc(b1-3)Gal(a1-4)Gal(b1-4)GlcNAc
Procedure, shortened: as §1

GalNAc(b1-3)Gal = molecular target: GalNAc(b1-3)Gal
Procedure, shortened: as §1

[18] = molecular target: GalNAc(b1-3)Gal(a1-4)Gal(b1-4)GlcNAc
Procedure, shortened: as §1

[19] = molecular target: GalNAc(b1-3)Gal(a1-4)Gal(b1-4)GlcNAc(b1-3)Gal(b1-4)Glc
Procedure, shortened: as §1

[20] = molecular target: GalNAc(b1-3)Gal(a1-6)Gal(b1-4)Glc
Procedure, shortened: as §1

GalNAc(b1-3)GalNAc = molecular target: GalNAc(b1-3)GalNAc
Procedure, shortened: as §1

GalNAc(b1-3)GlcNAc = molecular target: GalNAc(b1-3)GlcNAc
Procedure, shortened: as §1

GalNAc(b1-4)Gal(b1-4)Glc = molecular target: GalNAc(b1-4)Gal(b1-4)Glc
Procedure, shortened: as §1

B1: VLRB.aGPA.23-GCN4-biotin (Petromyzon marinus) (protein)
chain: ACPSQCSCSGTEVNCAGKSLASVPAGIPTTTRVLYLNSNQITKLEPGVFDRLANLRELHLWGNQLVSLPPGVFDNLANLEKLWLNSNQLTSLPAGLFDRLVNLEHLGLCCMKLTELPSGAFDKLTRLKQLGLDQNQLKSIPDGAFARLPSLTHVWLHTNPWDCQCTDILYLSGWVAQHSSIVGEGWPWRHSPDSAKCSGTNTPVRAVTEASTSPSKCP
In the case of B1, the “glycan array binding signal (z-score)” value [1] is reported as -0.042, the “glycan array binding signal (z-score)” value [2] is reported as -0.044 and the “glycan array binding signal (z-score)” value [3] is reported as -0.077. The “glycan array binding signal (z-score)” value [4] was -0.075, the “glycan array binding signal (z-score)” value [5] was -0.059 and the “glycan array binding signal (z-score)” value [6] was -0.079. The “glycan array binding signal (z-score)” value [7] was -0.077, the “glycan array binding signal (z-score)” value [8] was -0.081 and the “glycan array binding signal (z-score)” value [9] was -0.067. For the same binder, the “glycan array binding signal (z-score)” value [10] was -0.079, the “glycan array binding signal (z-score)” value [11] was -0.074 and the “glycan array binding signal (z-score)” value (Gal(b1-4)GlcNAc6P) was -0.081. For the same binder, the “glycan array binding signal (z-score)” value (Gal(b1-6)Gal) was -0.073, the “glycan array binding signal (z-score)” value (Gal3S(b1-3)GalNAc) was -0.075 and the “glycan array binding signal (z-score)” value (Gal3S(b1-3)GlcNAc) was -0.063. The “glycan array binding signal (z-score)” value [12] was -0.082, the “glycan array binding signal (z-score)” value (Gal3S(b1-4)Glc) was -0.073 and the “glycan array binding signal (z-score)” value (Gal3S(b1-4)Glc6S) was -0.079. For the same binder, the “glycan array binding signal (z-score)” value (Gal3S(b1-4)GlcNAc) was -0.076, the “glycan array binding signal (z-score)” value [13] was -0.066 and the “glycan array binding signal (z-score)” value [14] was -0.073. The “glycan array binding signal (z-score)” value [15] was -0.074, the “glycan array binding signal (z-score)” value (Gal3S4S(b1-4)GlcNAc) was -0.079 and the “glycan array binding signal (z-score)” value (Gal3S6S(b1-4)GlcNAc) was -0.078. The “glycan array binding signal (z-score)” value (Gal3S6S(b1-4)GlcNAc6S) was -0.07, the “glycan array binding signal (z-score)” value (Gal4S(b1-4)GlcNAc) was -0.08 and the “glycan array binding signal (z-score)” value (Gal4S6S(b1-4)GlcNAc) was -0.079. For the same binder, the “glycan array binding signal (z-score)” value (Gal6P(b1-4)GlcNAc) was -0.084, the “glycan array binding signal (z-score)” value (Gal6S(b1-3)GlcNAc) was 0.341 and the “glycan array binding signal (z-score)” value (Gal6S(b1-3)GlcNAc6S) was -0.086. The “glycan array binding signal (z-score)” value (Gal6S(b1-4)Glc) was -0.078, the “glycan array binding signal (z-score)” value (Gal6S(b1-4)Glc6S) was -0.087 and the “glycan array binding signal (z-score)” value (Gal6S(b1-4)GlcNAc) was -0.083. For the same binder, the “glycan array binding signal (z-score)” value (Gal6S(b1-4)GlcNAc6S) was -0.076, the “glycan array binding signal (z-score)” value (GalNAc(a1-3)Gal) was -0.083 and the “glycan array binding signal (z-score)” value (GalNAc(a1-3)GalNAc) was -0.07. For the same binder, the “glycan array binding signal (z-score)” value [16] was -0.08, the “glycan array binding signal (z-score)” value [17] was -0.076 and the “glycan array binding signal (z-score)” value (GalNAc(b1-3)Gal) was -0.076. For the same binder, the “glycan array binding signal (z-score)” value [18] was -0.067, the “glycan array binding signal (z-score)” value [19] was -0.085 and the “glycan array binding signal (z-score)” value [20] was -0.081. The “glycan array binding signal (z-score)” value (GalNAc(b1-3)GalNAc) was -0.076, the “glycan array binding signal (z-score)” value (GalNAc(b1-3)GlcNAc) was -0.084 and the “glycan array binding signal (z-score)” value (GalNAc(b1-4)Gal(b1-4)Glc) was -0.07.
